# In ChEMBL document CHEMBL4888484, “Replenishing the malaria drug discovery pipeline: Screening and hit evaluation of the MMV Hit Generation Library 1 (HGL1) against asexual blood stage Plasmodium falciparum ,using a nano luciferase reporter read-out” (2022):
# Hit rate of the full screen: of about 150,000 compounds, about 540 (0.36%) showed an effect of 50% or more. The list shows a part of the results.
# Test system: Plasmodium falciparum
# Assay: Primary screen in NF54 nanoGlo assay, in single point, at 2uM, 72h; a lower Z score goes with more inhibition
# Assay type: functional, Erythrocyte
# Settings: timepoint 72 hour
SMILES,% Inhibition,Z score
O=C(NC1CCCCC1)C1Cc2ccccc2N2CCN(CC(=O)N3CCOCC3)CC12 (configuration not stated),-8%,1.06
COc1cccc(C(=O)N2CCN(C(=O)Nc3ccncc3C)CC2)c1,2%,-0.16
O=C(Nc1nncs1)c1ccccc1Nc1cccc(C(F)(F)F)c1,-5%,0.51
C=CCNC(=NC1CCOCC1)NCCc1ccccc1OCC,-19%,1.94
C[C@H](NC(=O)c1ccsc1)c1nnc2n1CCCCC2,-8%,1.18
C[C@@H](C1CC1)N(C)c1ncnc2ccsc12,6%,-0.72
Cc1cc(OC2CCN(C(=O)Cn3cnc4ccccc43)CC2)nc(C)n1,0%,-0.01
CC(C)[C@H](NC(=O)c1nc(=O)[nH][nH]1)c1ccccc1Cl,-2%,0.29
CC(C)N(CC(F)(F)F)C(=O)CNc1cc(CO)ccc1Cl,-9%,1.31
Cc1ncnc(NCCCc2csc(N)n2)c1C,2%,-0.17
Cc1cc(C)c(C(=O)N2CCCCCCC2)c(=O)[nH]1,2%,-0.36
COC(=O)NC(=C(c1nc2ccccc2s1)c1nc2ccccc2s1)C(F)(F)F,20%,-2.54
CCCc1n[nH]cc1C(=O)N1CCC[C@H]1c1nc(-c2ccccc2)no1,-16%,2.05
CC1(C)[C@@H](NS(=O)(=O)N2CCOCC2)[C@@H]1c1ccccc1,-9%,1.14
Cc1ccc(Nc2nc(N)nc(-c3ccsc3)n2)cc1,-15%,2.22
O=C(O)Cc1coc(NC(=O)c2ccc(Br)cc2)n1,-15%,2.93
O=C(Nc1ccccc1OCCc1ccccn1)N1CCCCCC1,-16%,3
COc1cccc(C(=O)N2CC[C@]3(OC)CC[C@H](OC)C[C@H]23)c1OC,0%,0.06
COc1ccc(-c2n[nH]c(C3CC3)c2NC(=O)C2CCC2)cc1OC,-10%,0.94
c1cncc(Cn2ncc3[nH]c(-c4ccc(CN5CCCCC5)s4)nc32)c1,-11%,1.55
c1cc2c(cc1CNC[C@H]1CN(C3CC3)CCO1)CCO2,-11%,1.45
Cc1ccc(C(=O)N2CCN(CC(=O)Nc3c(C)cccc3C)CC2)cc1NC(=O)c1ccco1,10%,-1.2

SMILES,% Inhibition,Z score
CN(C)CC[C@H]1CCCCN1C(=O)c1ccnn1C(F)F,-17%,1.83
Cc1ccc(C2CC2C(=O)N2CCCC2c2ccncc2)cc1C (configuration not stated),-13%,1.31
CNC(=O)CN1CCN(Cc2ccc(Cl)cc2F)CC1=O,-18%,1.86
CCc1ccc(C(=O)N[C@H](C#N)C(C)(C)C)c(O)c1,0%,-0.03
Cc1ncn(Cc2cccc3cccnc23)c1C,-8%,1.29
O=C(CCc1cccnc1)N1CCN(Cc2ccc(-c3cccc(Cl)c3)s2)CC1,3%,-0.38
COc1cc(-c2cccc([C@H](C)N3CCCC3)c2)cc2cc(C(=O)O)oc12,4%,-0.74
CN1CCCN(c2ccnc3ccsc23)CC1,32%,-4.37
COc1ccc(CCNC(=O)N2CC(c3nc4cc(C)ccc4[nH]3)C2)cc1,-11%,2.05
Cn1cc(-c2csc(-c3ccc(S(C)(=O)=O)cc3)n2)cn1,-16%,2.2
CC(NC1C2CC1N(C(=O)OC(C)(C)C)C2)c1cccnc1 (configuration not stated),-6%,0.9
Cc1ccc(-c2csc(NC(=O)[C@@H]3CCCN3C(=O)c3ccccc3O)n2)cc1C,-12%,1.33
COc1ccc(NC(=O)Cn2nc3c(N4CCC[C@H](C)C4)nccn3c2=O)cc1OC,-2%,0.22
CC(C)OC(=O)N1C[C@@H]2CC[C@H]1CN(C(=O)c1ccncc1)C2,-9%,1.43
Cc1nc(CN(C)c2ncccc2C(=O)OC(C)C)cs1,-2%,0.21
Cc1nnc(Cn2cnc(-c3ccccc3)c2-c2cccc3cnccc23)o1,-6%,1.25
Cc1cc(N)n(-c2ccc(-c3noc(-c4cc(C(C)C)on4)n3)cc2)n1,15%,-3.24
CN1CCc2ncnc(NCc3cccc(Cl)c3O)c2C1,-11%,1.66
COc1cccc(C(=O)N2CCN(C(=O)c3cc(=O)[nH]c(=O)[nH]3)CC2)c1,-2%,0.28
COc1ccc2cc1OCC(=O)N[C@@H](C)C(=O)N(C)CCCCN(C(=O)COc1cccc(C)c1C)CCCNC(=O)CC2,3%,-0.42
CN(c1ccccc1)c1nc(-c2ccccc2)no1,-10%,0.84
CC(C)(C)Nc1c(-c2ccc(C(C)(C)C)cc2)nc2c(OCc3ccccc3)cccn12,-19%,1.76

SMILES,% Inhibition,Z score
CCNC(=O)Nc1ccc2c(c1)CN(C(=O)Cc1cccc(F)c1)CCO2,-3%,0.51
Cc1n[nH]c(C)c1CNC(=O)[C@H](N)CC(C)(C)C,-4%,0.75
Cc1cnc(C(=O)NC[C@@H](C(C)C)N2CCN(C)CC2)cn1,12%,-1.54
Cn1cc(CCC(=O)N2CCCC2CC2CC3CCC2C3)cn1 (configuration not stated),-20%,1.74
CC(C)n1cnc2cc(CNC(=O)C3CCCCC3)ccc21,-24%,2.32
O=C(CNC(=O)OCc1ccccc1)NC1CCCCCCC1,7%,-1.33
CC(=O)N1CCCCC1CC(=O)N1CC(C)C(N2CCOCC2)C1 (configuration not stated),3%,-0.36
Fc1ccccc1CN1CCOC[C@H](Oc2cccnc2)C1,8%,-0.99
Cc1ccc(NC(=O)[C@@H](F)C(F)(F)F)cc1,-2%,0.41
COc1cc(-c2cccc(OC)c2C(=O)N(C(C)C)C(C)C)nc(N)n1,-9%,1.18
CC(=O)N1CCOCC1C(=O)N1CCCC(CCC(C)C)C1 (configuration not stated),-10%,1.39
CC(C)CC(NC(=O)OC(C)(C)C)C(=O)N1CCC(C(=O)NC(C(=O)O)C(C)C)CC1 (configuration not stated),-2%,0.26
CCc1noc(C)c1C(=O)N1CCC[C@H](c2nccn2Cc2cccnc2)C1,-2%,0.4
Cc1ccc(CCN(CC(F)(F)F)C(=O)[C@@H]2CCN(C)S2(=O)=O)cc1,5%,-0.74
C[C@@H](C(=O)N1CCCc2ccccc21)N(C)Cc1nccn1C(F)F,15%,-2.7
CC1(C)CCC[C@H](NCCNc2cccnc2)C1,-7%,1.53
Cc1cccc(C(=O)Nc2ncccc2OCc2cccnc2)c1F,-3%,0.27
Cc1cccc(NC(=O)Cn2nc3n(c2=O)CCCC3)c1,-3%,0.36
O=C(NCc1ccc2c(n1)CCCC2)c1ocnc1C1CC1,-2%,0.27
C[C@H](NCc1nc(C2CC2)nn1C)c1c(F)cccc1F,-13%,2.41
CC(C)N1CCN(C(=O)[C@@H](N)C2CCCCC2)CC1,-5%,0.51
C[C@H]1CCCN(C(=O)Cn2ccn3nc(-c4ccc(F)cc4)c(CO)c3c2=O)C1,-7%,0.67

SMILES,% Inhibition,Z score
Cc1c(NC(=O)CC2(CC(=O)O)CCCCC2)c(=O)n(-c2ccccc2)n1C,-9%,1.31
O=C(c1ccccc1)c1nccn1CCS(=O)(=O)c1ccccc1,-3%,0.6
CCC(=O)Nc1cc(-n2cncn2)ncn1,-5%,0.73
COc1cc2c(cc1OC)CN([C@@H](C)c1nnc(-c3ccc(F)cc3)o1)CC2,-10%,1.43
CC1=NO[C@@H](CNC(=O)Nc2cc(C)ccc2C)C1,-6%,0.8
O=C(c1ccccn1)N1CCCn2nc(-c3ccc(Cl)cc3)cc2C1,-5%,0.84
O=C(C1CC12CCCC2)N1CCCC(S(=O)(=O)N2CCc3ccccc32)C1 (configuration not stated),35%,-5.12
Cc1ccccc1NC(=O)c1cccn1Cc1noc(-c2ccccc2)n1,0%,0.01
Brc1cnn(Cc2cnc(N3CCC[C@H](c4nccs4)C3)s2)c1,-7%,1.19
Cn1cc(Cl)c(C(=O)N2C[C@@H]3CC[C@H]2CN(C(=O)c2ccccc2)C3)n1,3%,-0.4
O=C(NCCC(F)(F)F)[C@@H]1NCCc2ccccc21,-1%,0.2
COc1ccc(Cl)cc1S(=O)(=O)N(CC(=O)N1CCNCC1)C1CCCC1,3%,-0.31
CCCCN(CC)S(=O)(=O)c1cc(-c2nnc(C)o2)co1,-2%,0.21
Cc1cccc(C)c1C(=O)N1CCN([C@@H]2CCNC(=O)CC2)CC1,8%,-1.42
CCO[C@H]1CN(C)C[C@@H]1Nc1cc(C)nc(Nc2cccc(O)c2)n1,-6%,1.08
COc1cn(CC(=O)N2CCc3ccccc3C2)c(CO)cc1=O,6%,-0.99
O=C(c1ccsn1)N1CCC=C(F)C1,4%,-0.52
COc1ccc(N2CCN(c3ncccc3-c3nc(C)no3)CC2)cc1,-3%,0.47
Cc1ccc2[nH]cc(CCC(=O)N(C)Cc3cnc(C)s3)c2c1,-7%,1.02
NC(=O)c1ccc(NCC[C@H]2CCCOC2)nc1,-2%,0.35
